Assay results: a collection of fitness landscapes (doi:10.1016/j.celrep.2020.107928)
Over roughly 81,000 sequences, “one-hybrid fitness for binding NBS DNA” has its median near -0.1; the highest 2% begin near 0.36. This is one part of the list.

B1: Caulobacter ParB omega fusion; a variant is named by its letters at X, in order, B8GW30 (parent)
chain: MESVVVGEPGMSEGRRGLGRGLSALLGEVDAAPAQAPGEQLGGSREAPIEILQRNPDQPRRTFREEDLEDLSNSIREKGVLQPILVRPSPDTAGEYQIVAGERAWRAAQRAGLKTVPIMVRELDDLAVLEIGIIENVQRADLNVLEEALSYKVLMEKFERTQENIAQTIGKSXSHVANXMRLLXLPDEVQSYLVSGELTAXHARAIAAAADPVALAKQIIEGGLSVRETEALARKAPNLSAGKSKGGRPPRVKDTDTQALESDLSSVLGLDVSIDHRGSTGTLTITYATLEQLDDLCNRLTRGI

Variants of: B1
Test: one-hybrid fitness for binding NBS DNA (the Noc-binding site; scaled: cognate 1, non-cognate 0); higher = stronger binding
Conditions: with NBS DNA site
Procedure, shortened: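 In E. coli USO, a HIS3 reporter with its site placed 19 bp from the promoter was used to select Caulobacter ParB variants randomised at four specificity codons. Growth lasted 48 hours at 37°C on histidine-free M9 containing 0.1 mM IPTG and 5 mM 3-AT. Fitness was taken as the log change in variant-to-wild-type read ratio from Illumina sequencing of pre- and post-selection plasmids, rescaled between the non-cognate and cognate sites.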

| Variant | one-hybrid fitness for binding NBS DNA |
| --- | --- |
| NVRG | ≤ 0.2 |
| QIHE | ≤ 0.2 |
| YQDA | ≤ 0.2 |
| WHVR | ≤ 0.2 |
| GFVI | ≤ 0.2 |
| EARG | ≤ 0.2 |
| PSID | ≤ 0.2 |
| VLIM | ≤ 0.2 |
| GNDP | ≤ 0.2 |
| NSPR | ≤ 0.2 |
| RRSG | 0.338 |
| SGMT | ≤ 0.2 |
| IHSS | ≤ 0.2 |
| CQRG | ≤ 0.2 |
| LEDE | ≤ 0.2 |
| MWPG | ≤ 0.2 |
| GLRQ | ≤ 0.2 |
| MFDN | ≤ 0.2 |
| QPHH | ≤ 0.2 |
| YVWG | ≤ 0.2 |
| FWNS | ≤ 0.2 |
| VDQS | ≤ 0.2 |
| PKVC | ≤ 0.2 |
| FLPV | ≤ 0.2 |

| Variant | one-hybrid fitness for binding NBS DNA |
| --- | --- |
| QNKC | ≤ 0.2 |
| IERT | ≤ 0.2 |
| ESRI | ≤ 0.2 |
| RMCF | ≤ 0.2 |
| RKLR | 0.525 |
| QPTQ | ≤ 0.2 |
| CQAF | ≤ 0.2 |
| TGEL | ≤ 0.2 |
| TYWR | ≤ 0.2 |
| RNVT | ≤ 0.2 |
| ETVG | ≤ 0.2 |
| TMYC | ≤ 0.2 |
| CAPF | ≤ 0.2 |
| QYTH | 0.202 |
| AHHR | ≤ 0.2 |
| TPGI | ≤ 0.2 |
| IKTH | ≤ 0.2 |
| VSQH | ≤ 0.2 |
| QIFS | ≤ 0.2 |
| SKFM | ≤ 0.2 |
| SREY | ≤ 0.2 |
| YAKR | ≤ 0.2 |
| RQEI | ≤ 0.2 |
| PLPG | ≤ 0.2 |

| Variant | one-hybrid fitness for binding NBS DNA |
| --- | --- |
| SLFS | ≤ 0.2 |
| TLAE | ≤ 0.2 |
| MLMR | ≤ 0.2 |
| TEPN | ≤ 0.2 |
| QIRG | ≤ 0.2 |
| TTRC | ≤ 0.2 |
| HVEC | ≤ 0.2 |
| AMWT | ≤ 0.2 |
| SQGV | ≤ 0.2 |
| AWLK | ≤ 0.2 |
| VVGM | ≤ 0.2 |
| TMRW | ≤ 0.2 |
| LGVV | ≤ 0.2 |
| ALCW | ≤ 0.2 |
| HTIL | ≤ 0.2 |
| ATRM | ≤ 0.2 |
| IEDS | ≤ 0.2 |
| LMDW | ≤ 0.2 |
| CLQI | ≤ 0.2 |
| VHNC | ≤ 0.2 |
| GVMA | ≤ 0.2 |
| PVSH | ≤ 0.2 |
| HLVT | ≤ 0.2 |
| QRLK | 0.329 |

| Variant | one-hybrid fitness for binding NBS DNA |
| --- | --- |
| LQYH | ≤ 0.2 |
| LCTY | ≤ 0.2 |
| KRAI | ≤ 0.2 |
| QINT | 0.462 |
| YQND | ≤ 0.2 |
| CTCS | ≤ 0.2 |
| HRMN | ≤ 0.2 |
| KDYF | ≤ 0.2 |
| PCDT | ≤ 0.2 |
| AYES | ≤ 0.2 |
| QHYA | 0.291 |
| YGSS | ≤ 0.2 |
| PTHR | ≤ 0.2 |
| CTRW | ≤ 0.2 |
| GRET | ≤ 0.2 |
| NPNY | ≤ 0.2 |
| LALL | ≤ 0.2 |
| VSWE | ≤ 0.2 |
| EQRL | ≤ 0.2 |
| WIER | ≤ 0.2 |
| GHEG | ≤ 0.2 |
| PYTE | ≤ 0.2 |
| LKTS | ≤ 0.2 |
| QYQI | ≤ 0.2 |

| Variant | one-hybrid fitness for binding NBS DNA |
| --- | --- |
| VLRV | ≤ 0.2 |
| ASHF | ≤ 0.2 |
| CAVI | ≤ 0.2 |
| GITV | ≤ 0.2 |
| IAYC | ≤ 0.2 |
| QIHV | ≤ 0.2 |
| KAFR | ≤ 0.2 |
| VGAE | ≤ 0.2 |
| SDLT | ≤ 0.2 |
| PLPK | ≤ 0.2 |
| PMPQ | ≤ 0.2 |
| HVEG | ≤ 0.2 |
| VCTS | ≤ 0.2 |
| SDTD | ≤ 0.2 |
| PPDA | ≤ 0.2 |
| LDMD | ≤ 0.2 |
| LRLV | ≤ 0.2 |
| SHRH | ≤ 0.2 |
| PAIY | ≤ 0.2 |
| SCEV | ≤ 0.2 |
| IWEL | ≤ 0.2 |
| TVHQ | ≤ 0.2 |
| SPRC | ≤ 0.2 |
| SLMS | ≤ 0.2 |

| Variant | one-hybrid fitness for binding NBS DNA |
| --- | --- |
| QLVA | ≤ 0.2 |
| RNMN | ≤ 0.2 |
| MRHC | ≤ 0.2 |
| EVAT | ≤ 0.2 |
| LWSC | ≤ 0.2 |
| IRNG | ≤ 0.2 |
| DSDY | ≤ 0.2 |
| HELR | ≤ 0.2 |
| DPVM | ≤ 0.2 |
| AAFC | ≤ 0.2 |
| CINT | ≤ 0.2 |
| EPNV | ≤ 0.2 |
| PPHV | ≤ 0.2 |
| QYYH | ≤ 0.2 |
| CEDT | ≤ 0.2 |
| RTCY | ≤ 0.2 |
| TNEL | ≤ 0.2 |
| MPST | ≤ 0.2 |
| HSCS | ≤ 0.2 |
| RTCH | 0.234 |
| VKHC | ≤ 0.2 |
| AFRI | ≤ 0.2 |
| PQRL | ≤ 0.2 |
| DNHY | ≤ 0.2 |

| Variant | one-hybrid fitness for binding NBS DNA |
| --- | --- |
| YRKP | ≤ 0.2 |
| PMDR | ≤ 0.2 |
| GGME | ≤ 0.2 |
| PYNI | ≤ 0.2 |
| DTWS | ≤ 0.2 |
| KNRR | ≤ 0.2 |
| STCV | ≤ 0.2 |
| GTQQ | ≤ 0.2 |
| DVWS | ≤ 0.2 |
| AYHG | ≤ 0.2 |
| IKRA | ≤ 0.2 |
| ETCF | ≤ 0.2 |
| NMHL | ≤ 0.2 |
| NRAL | ≤ 0.2 |
| RMNW | ≤ 0.2 |
| LKNQ | ≤ 0.2 |
| PFMS | ≤ 0.2 |
| WVMN | ≤ 0.2 |
| FGVM | ≤ 0.2 |
| DYAG | ≤ 0.2 |
| WRAR | ≤ 0.2 |
| STLF | ≤ 0.2 |
| GCNY | ≤ 0.2 |
| NRFS | ≤ 0.2 |

| Variant | one-hybrid fitness for binding NBS DNA |
| --- | --- |
| DHQD | ≤ 0.2 |
| TEWY | ≤ 0.2 |
| QGQS | ≤ 0.2 |
| IPTG | ≤ 0.2 |
| GPYM | ≤ 0.2 |
| VLTY | ≤ 0.2 |
| ANDI | ≤ 0.2 |
| LWYA | ≤ 0.2 |
| IWMT | ≤ 0.2 |
| LDTC | ≤ 0.2 |
| WLYC | ≤ 0.2 |
| NIHN | ≤ 0.2 |
| YIKG | ≤ 0.2 |
| RAME | ≤ 0.2 |
| MECT | ≤ 0.2 |
| RLYF | ≤ 0.2 |
| GSNW | ≤ 0.2 |
| AHDW | ≤ 0.2 |
| LEAK | ≤ 0.2 |
| QKWY | ≤ 0.2 |
| QWSM | ≤ 0.2 |
| GLVL | ≤ 0.2 |
| DAMG | ≤ 0.2 |
| TNTT | ≤ 0.2 |

| Variant | one-hybrid fitness for binding NBS DNA |
| --- | --- |
| QFRE | ≤ 0.2 |
| DPVL | ≤ 0.2 |
| ETYT | ≤ 0.2 |
| LPTC | ≤ 0.2 |
| LTGF | ≤ 0.2 |
| QKMF | ≤ 0.2 |
| EYKG | ≤ 0.2 |
| VLYY | ≤ 0.2 |
| NCAE | ≤ 0.2 |
| CPDR | ≤ 0.2 |
| YASV | ≤ 0.2 |
| LQTM | ≤ 0.2 |
| QGRV | ≤ 0.2 |
| PGSI | ≤ 0.2 |
| PITS | ≤ 0.2 |
| WAAA | ≤ 0.2 |
| VTWH | ≤ 0.2 |
| PMPN | ≤ 0.2 |
| SFKV | ≤ 0.2 |
| VVTS | ≤ 0.2 |
| CIQI | ≤ 0.2 |
| HPTC | ≤ 0.2 |
| KRVV | ≤ 0.2 |
| NVCT | ≤ 0.2 |

| Variant | one-hybrid fitness for binding NBS DNA |
| --- | --- |
| QQET | 0.371 |
| WKHS | ≤ 0.2 |
| GCTY | ≤ 0.2 |
| LYRW | ≤ 0.2 |
| PQGS | ≤ 0.2 |
| WRAG | ≤ 0.2 |
| NMAR | ≤ 0.2 |
| SCIA | ≤ 0.2 |
| ACVI | ≤ 0.2 |
| MNWM | ≤ 0.2 |
| DAAL | ≤ 0.2 |
| KVFR | ≤ 0.2 |
| ENKY | ≤ 0.2 |
| QMEE | ≤ 0.2 |
| DVQV | ≤ 0.2 |
| HQAG | ≤ 0.2 |
| DYMM | ≤ 0.2 |
| KADF | ≤ 0.2 |
| QSPW | ≤ 0.2 |
| WDEC | ≤ 0.2 |
| LPIT | ≤ 0.2 |
| GDKR | ≤ 0.2 |
| AQSW | ≤ 0.2 |
| SREF | ≤ 0.2 |

| Variant | one-hybrid fitness for binding NBS DNA |
| --- | --- |
| QSNV | ≤ 0.2 |
| INLA | ≤ 0.2 |
| ALRY | ≤ 0.2 |
| NIHR | ≤ 0.2 |
| IKKR | 0.247 |
| AVVL | ≤ 0.2 |
| APPR | ≤ 0.2 |
| RCMC | ≤ 0.2 |
| RTIF | ≤ 0.2 |
| PNCF | ≤ 0.2 |
| CTIM | ≤ 0.2 |
| PVTS | ≤ 0.2 |
| QNYE | ≤ 0.2 |
| IPFL | ≤ 0.2 |
| WFSG | ≤ 0.2 |
| QKRG | 0.335 |
| KQTC | ≤ 0.2 |
| IMTL | ≤ 0.2 |
| ADRE | ≤ 0.2 |
| QMTC | ≤ 0.2 |
| RSFR | 0.28 |
| DPKT | ≤ 0.2 |
| DTWP | ≤ 0.2 |
| VPRT | ≤ 0.2 |

| Variant | one-hybrid fitness for binding NBS DNA |
| --- | --- |
| QQTF | ≤ 0.2 |
| SCET | ≤ 0.2 |
| IVLQ | ≤ 0.2 |
| TTCN | ≤ 0.2 |
| NFTT | ≤ 0.2 |
| IRLH | ≤ 0.2 |
| HSNW | ≤ 0.2 |
| LYFS | ≤ 0.2 |
| LMES | ≤ 0.2 |
| AQHE | ≤ 0.2 |
| TCAT | ≤ 0.2 |
| LTAL | ≤ 0.2 |
| YING | ≤ 0.2 |
| KCTW | ≤ 0.2 |
| SSKA | ≤ 0.2 |
| RRVV | 0.229 |
| PDGW | ≤ 0.2 |
| SKMG | ≤ 0.2 |
| TDRM | ≤ 0.2 |
| FGAR | 0.385 |
| HRSG | ≤ 0.2 |
| CVTM | ≤ 0.2 |
| EHRV | ≤ 0.2 |
| ISCP | ≤ 0.2 |

| Variant | one-hybrid fitness for binding NBS DNA |
| --- | --- |
| PNAP | ≤ 0.2 |
| HADI | ≤ 0.2 |
| PERY | ≤ 0.2 |
| KQTV | ≤ 0.2 |
| EDMS | ≤ 0.2 |
| FGTS | ≤ 0.2 |
| KWCT | ≤ 0.2 |
| RTLK | ≤ 0.2 |
| RTRD | ≤ 0.2 |
| LCWC | ≤ 0.2 |
| QHML | ≤ 0.2 |
| IMLN | ≤ 0.2 |
| LKCT | ≤ 0.2 |
| MSSA | ≤ 0.2 |
| QPSA | ≤ 0.2 |
| DQRG | ≤ 0.2 |
| VSEI | ≤ 0.2 |
| NFRA | ≤ 0.2 |
